From paper PMC7794930 come the findings set out here.

Results are given in words; binding and its absence hold for the method and conditions named. Binding seen in cells or lysates may run through a third protein. Some entries that bind do so weakly or less than the wild type. Sequences can lack the tags named with a protein.

Assay [1] addresses T1, Sec21-GFP (COPI coat subunit Sec21, yeast γ-COP, tagged with GFP) (S. cerevisiae) (UniProt P32074).
T1 sequence: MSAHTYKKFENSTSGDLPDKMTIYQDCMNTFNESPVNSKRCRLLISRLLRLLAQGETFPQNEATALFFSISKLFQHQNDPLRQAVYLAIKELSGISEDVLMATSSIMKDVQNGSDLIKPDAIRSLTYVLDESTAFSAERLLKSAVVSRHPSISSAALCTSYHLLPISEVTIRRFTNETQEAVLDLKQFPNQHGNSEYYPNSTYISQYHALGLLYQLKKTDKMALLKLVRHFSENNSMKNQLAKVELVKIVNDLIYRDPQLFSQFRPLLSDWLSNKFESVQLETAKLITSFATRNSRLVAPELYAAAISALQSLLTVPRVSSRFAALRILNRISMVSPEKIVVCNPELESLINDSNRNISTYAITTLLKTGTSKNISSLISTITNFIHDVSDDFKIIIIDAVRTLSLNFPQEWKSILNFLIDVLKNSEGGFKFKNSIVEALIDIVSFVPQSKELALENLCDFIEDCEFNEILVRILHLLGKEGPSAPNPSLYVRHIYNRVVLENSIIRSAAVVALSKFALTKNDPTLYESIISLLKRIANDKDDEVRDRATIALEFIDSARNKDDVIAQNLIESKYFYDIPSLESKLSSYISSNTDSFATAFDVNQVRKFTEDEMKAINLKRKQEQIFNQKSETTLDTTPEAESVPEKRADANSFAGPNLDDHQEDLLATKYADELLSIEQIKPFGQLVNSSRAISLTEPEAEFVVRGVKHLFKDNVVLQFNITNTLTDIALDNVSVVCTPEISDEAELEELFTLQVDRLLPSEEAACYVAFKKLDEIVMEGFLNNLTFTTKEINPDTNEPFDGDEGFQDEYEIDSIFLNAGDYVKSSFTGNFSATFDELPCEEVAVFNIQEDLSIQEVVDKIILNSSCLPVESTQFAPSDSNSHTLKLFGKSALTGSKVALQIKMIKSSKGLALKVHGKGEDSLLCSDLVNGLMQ
As to the kind of experiment: co-IP; native co-IP of GFP- or CFP-tagged bait with GFP-Trap_A (3 h, 4 °C) from S13 enriched-Golgi fraction solubilized with 1% Triton X-100 in HEPES buffer (20 mM HEPES pH 7.2, 100 mM KCl, 5 mM MgCl2); immunoblot; wild-type, emp24Δ, or erg6Δ cells with or without 100 µg/mL BFA. A general note: A western blot detects proteins with antibodies after separation by electrophoresis.

In assay [2] the target is T1, Sec21-GFP (COPI coat subunit Sec21, yeast γ-COP, tagged with GFP) (S. cerevisiae). As to the kind of experiment: co-IP; total lysate and S13, P13, S100 and P100 fractions of differential centrifugation, each immunoprecipitated for Sec21-GFP and blotted for HA.
In assay [3] the target is T2, Emp24-CFP (p24 complex subunit) (S. cerevisiae) (UniProt P32803).
T2 sequence: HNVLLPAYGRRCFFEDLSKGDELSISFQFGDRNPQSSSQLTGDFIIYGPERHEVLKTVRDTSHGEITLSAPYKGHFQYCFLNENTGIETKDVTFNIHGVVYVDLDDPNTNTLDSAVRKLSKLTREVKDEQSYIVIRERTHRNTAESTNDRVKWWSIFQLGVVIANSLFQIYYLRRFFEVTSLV
As to the kind of experiment: co-IP; native co-IP of GFP- or CFP-tagged bait with GFP-Trap_A (3 h, 4 °C) from S13 enriched-Golgi fraction solubilized with 1% Triton X-100 in HEPES buffer (20 mM HEPES pH 7.2, 100 mM KCl, 5 mM MgCl2); immunoblot; wild-type, emp24Δ, or erg6Δ cells with or without 100 µg/mL BFA.

B1: Emp24 (endogenous, p24 complex subunit) (protein, UniProt P32803 21-203)
chain: T2 sequence
As for B1, the binding entry in assay [1] was “binds”.

B2: HA-Gea1ΔCOPI (HA-Gea1 lacking residues 434–521) (protein, UniProt P47102)
chain: MHDVPMETVLAVNPATMIVKECINLCSAMNKQSRDKSQTSVAALLGGGSDIFLSQSDSFVDSFHNLPTSSYHDPLISGLVQLRLKINDLKGLDSLNALELLKPFLEIVSASSVSGYTTSLALDSLQKVFTLKIINKTFNDIQIAVRETVVALTHCRFEASKQISDDSVLLKVVTLLRDIITSSFGDYLSDTIIYDVLQTTLSLACNTQRSEVLRKTAEVTIAGITVKLFTKLKLLDPPTKTEKYINDESYTDNNLKDDIIGTTTSDNDLSSTDDDSAVADDNKNEKPVQQVIREQENDEETAEKAENVEPNYGITVIKDYLGLLLSLVMPENRMKHTTSAMKLSLQLINAAIEISGDKFPLYPRLFSLISDPIFKSVLFIIQSSTQYSLLQATLQLFTSLVVILGDYLPMQIELTLRRIFEILEDTTISGDVSDRAEFVKNQKEIDILKQRDRKTEFILCVETFNEKAKKGIQMLIEKGFIDSDSNRDIASFLFLNNGRLNKKTIGLLLCDPKKTSLLKEFIDLFDFKGLRVDEAIRILLTKFRLPGESQQIERIVEAFSSKYSADQSNDKVELEDKKAGKNGSESMTEDDIIHVQPDADSVFVLSYSIIMLNTDSHNPQVKDHMTFDDYSNNLRGCYNGKDFPRWYLHKIYTSIKVKEIVMPEEHHGNERWFEDAWNNLISSTSVMTEMQRDFTNPISKLAQIDILQYEKAIFSNVRDIILKTLFKIFTVASSDQISLRILDAISKCTFINYYFSFDQSYNDTVLHLGEMTTLAQSSAKAVELDVDSIPLVEIFVEDTGSKISVSNQSIRLGQNFKAQLCTVLYFQIIKEISDPSIVSTRLWNQIVQLILKLFENLLMEPNLPFFTNFHSLLKLPELPLPDPDISIRKAKMSRSLLSTFASYLKGDEEPSEEDIDFSIKAFECVKASHPLSSVFENNQLVSPKMIETLLSSLVIEKTSENSPYFEQELLFLLEISIILISEASYGQEFGALIADHMINISNLDGLSKEAIARLASYKMFLVSRFDNPRDILSDLIEHDFLVKNEIFNTKYYESEWGKQVINDLFTHLNDVKYNERALKNVKFWNFLRILISAKDRQFAVYTFLEKYIQNGDIFVDDGNFMNILSLLDEMSCAGAVGTKWEQNYENSVEDGCEAPESNPYRSIIDLSSRSINITADLLSTVGRSNSALNKNEIIAAIQGLAHQCLNPCDELGMQALQALENILLSRASQLRTEKVAVDNLLETGLLPIFELDEIQDVKMKRITSILSVLSKIFLGQLVEGVTSNETFLRVLNVFNKYVDDPTVERQLQELIISKREIEKE
Take B2: the binding result in assay [1] was “binds”.

B3: HA-Gea1 (full-length, 5xHA-GEA1) (protein, UniProt P47102 1-1408)
chain: MHDVPMETVLAVNPATMIVKECINLCSAMNKQSRDKSQTSVAALLGGGSDIFLSQSDSFVDSFHNLPTSSYHDPLISGLVQLRLKINDLKGLDSLNALELLKPFLEIVSASSVSGYTTSLALDSLQKVFTLKIINKTFNDIQIAVRETVVALTHCRFEASKQISDDSVLLKVVTLLRDIITSSFGDYLSDTIIYDVLQTTLSLACNTQRSEVLRKTAEVTIAGITVKLFTKLKLLDPPTKTEKYINDESYTDNNLKDDIIGTTTSDNDLSSTDDDSAVADDNKNEKPVQQVIREQENDEETAEKAENVEPNYGITVIKDYLGLLLSLVMPENRMKHTTSAMKLSLQLINAAIEISGDKFPLYPRLFSLISDPIFKSVLFIIQSSTQYSLLQATLQLFTSLVVILGDYLPMQIELTLRRIFEILEDTTISGDVSKQKPPAIRELIIEQLSILWIHSPAFFLQLFVNFDCNLDRSDLSIDFIKELTKFSLPAAAVNTSNNIPPICLEGVLSLIENIYNDLQRFDRAEFVKNQKEIDILKQRDRKTEFILCVETFNEKAKKGIQMLIEKGFIDSDSNRDIASFLFLNNGRLNKKTIGLLLCDPKKTSLLKEFIDLFDFKGLRVDEAIRILLTKFRLPGESQQIERIVEAFSSKYSADQSNDKVELEDKKAGKNGSESMTEDDIIHVQPDADSVFVLSYSIIMLNTDSHNPQVKDHMTFDDYSNNLRGCYNGKDFPRWYLHKIYTSIKVKEIVMPEEHHGNERWFEDAWNNLISSTSVMTEMQRDFTNPISKLAQIDILQYEKAIFSNVRDIILKTLFKIFTVASSDQISLRILDAISKCTFINYYFSFDQSYNDTVLHLGEMTTLAQSSAKAVELDVDSIPLVEIFVEDTGSKISVSNQSIRLGQNFKAQLCTVLYFQIIKEISDPSIVSTRLWNQIVQLILKLFENLLMEPNLPFFTNFHSLLKLPELPLPDPDISIRKAKMSRSLLSTFASYLKGDEEPSEEDIDFSIKAFECVKASHPLSSVFENNQLVSPKMIETLLSSLVIEKTSENSPYFEQELLFLLEISIILISEASYGQEFGALIADHMINISNLDGLSKEAIARLASYKMFLVSRFDNPRDILSDLIEHDFLVKNEIFNTKYYESEWGKQVINDLFTHLNDVKYNERALKNVKFWNFLRILISAKDRQFAVYTFLEKYIQNGDIFVDDGNFMNILSLLDEMSCAGAVGTKWEQNYENSVEDGCEAPESNPYRSIIDLSSRSINITADLLSTVGRSNSALNKNEIIAAIQGLAHQCLNPCDELGMQALQALENILLSRASQLRTEKVAVDNLLETGLLPIFELDEIQDVKMKRITSILSVLSKIFLGQLVEGVTSNETFLRVLNVFNKYVDDPTVERQLQELIISKREIEKE
B3: the binding entry in assay [2] and in assay [1] was “binds” in each case.

B4: Pgk1 (protein, UniProt P00560 1-416)
chain: MSLSSKLSVQDLDLKDKRVFIRVDFNVPLDGKKITSNQRIVAALPTIKYVLEHHPRYVVLASHLGRPNGERNEKYSLAPVAKELQSLLGKDVTFLNDCVGPEVEAAVKASAPGSVILLENLRYHIEEEGSRKVDGQKVKASKEDVQKFRHELSSLADVYINDAFGTAHRAHSSMVGFDLPQRAAGFLLEKELKYFGKALENPTRPFLAILGGAKVADKIQLIDNLLDKVDSIIIGGGMAFTFKKVLENTEIGDSIFDKAGAEIVPKLMEKAKAKGVEVVLPVDFIIADAFSADANTKTVTDKEGIPAGWQGLDNGPESRKLFAATVAKAKTIVWNGPPGVFEFEKFAAGTKALLDEVVKSSAAGNTVIIGGGDTATVAKKYGVTDKISHVSTGGGASLELLEGKELPGVAFLSEKK
On to B4, for which the binding entry in assay [3] was “no binding”.
